In PubChem BioAssay AID686978 (National Center for Advancing Translational Sciences (NCATS), 2013):
“And” between values parts separate entries of the source, which are not always exact repeats. Identical values can stand only once. Screen size: about 420,000 compounds; about 64,000 (15%) were called active. This list was built around the results that the source calls inconclusive (neither active nor inactive); the mix of calls is not that of the screen. The call rests on the fitted dose curve; in most records, active means well fitted inhibition curve with a large enough effect; inconclusive means small, poorly fitted or top-dose-only effect; inactive means flat fitted curve, though single readings scatter. Potencies beside an inconclusive call are fits to weak or partial responses and may not hold up.

test: qHTS for Inhibitors of human tyrosyl-DNA phosphodiesterase 1 (TDP1): qHTS in cells in absence of CPT; conditions: DT40 Tdp1-/- hTDP1 cells, no CPT, ATP luminescence, 48 h; activity change, negative = growth inhibition: at 46.2 µM (top of the series) unless noted; further: nearly all actives have a fitted effect of over 55% in size
In short: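 Camptothecin absent (DMSO only). Human TDP1-complemented DT40 knockout cells, 400 cells/well, 37 °C for minimum 48 hr; ATP measured via CellTiter-Glo, 30 min dark incubation, luminescence.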
On the % scale 0 is the no-effect control and ±100 the full control effect; potency means the concentration at half of the fitted maximal effect; tags describe the fitted curve by direction and shape.

| SMILES | Potency | activity change, negative = growth inhibition |
| --- | --- | --- |
| Brc1[nH]nc2ccccc12 | inactive |  |
| CCOCCn1c(=O)c2c(nc3n2CC(C)CN3CCc2ccccc2)n(C)c1=O (stereo not drawn) | inconclusive: 29.1 µM [inhibitor, single point] |  |
| CC(=O)/C=C1\OCc2cc(OCc3ccccc3)ccc21 | inconclusive: 23.1 µM [inhibitor, single point] |  |
| Cc1ccccc1-n1c2nc(=O)[nH]c(=O)c-2cc2c(Cl)cccc21 | active: 0.517 µM |  |
| COc1ccc(-c2cc(C(=O)N3CCN(c4ccccc4O)CC3)c3ccccc3n2)cc1OC | active: 18.4 µM |  |
| CCOc1nc(-c2ccccc2)c2cc(C)ccc2n1 | inconclusive: 10.3 µM [inhibitor, partial curve] |  |
| Cn1c(CC(=O)Nc2ccccc2)nnc1SCCOc1ccccc1 | inconclusive: 23.1 µM [inhibitor, partial curve] |  |
| COc1ccc(NC(=O)CSc2nnc(-c3nonc3NC(C)=O)n2C)cc1Cl | inconclusive: 25.9 µM [inhibitor, partial curve] |  |
| C/C(=N\O)c1ccc2c3c([nH]c2c1)CCCC3 |  | inconclusive: -30.6% [inhibitor] |
| COc1cccc(CNC(=O)CCC2CCCN(C(=O)c3cccc4c(C)c(C)[nH]c34)C2)c1 (stereo not drawn) | inconclusive: 18.4 µM [inhibitor, single point] |  |
| Cc1ccc(-n2ccnc(NCCc3ccccc3)c2=O)cc1C | inconclusive: 20.6 µM [inhibitor, partial curve] |  |
| C[C@@H]1CCCCO[C@@H](CN(C)Cc2ccncc2)[C@@H](C)CN([C@H](C)CO)C(=O)c2cc(NC(=O)c3ccccc3)ccc2O1 | inconclusive: 1.03 µM [inhibitor, full curve, poor fit] |  |
| Cc1noc(C)c1S(=O)(=O)N1CCN(c2ccc([N+](=O)[O-])cc2)CC1 | inconclusive: 14.6 µM [inhibitor, single point] |  |
| C=CCNC(=O)CSc1nc2sc3c(c2c(=O)n1CCC)CCC3 | active: 14.6 µM |  |
| COc1ccc(Cl)cc1NC(=O)COC(=O)CC(C)(C)CC1=NS(=O)(=O)c2ccccc2N1 | active: 20.6 µM |  |
| Cc1c(Cl)cccc1NC(=O)CCn1cnnn1 | inactive |  |
| Cc1cc(C)n2nc(C(=O)OCC(=O)NCc3ccc(F)cc3)nc2n1 | inactive |  |
| Cc1onc(-c2ccccc2)c1-c1nnc(CN2CCN(S(=O)(=O)c3ccccc3F)CC2)o1 | inconclusive: 16.4 µM [inhibitor, single point] |  |
| COc1ccccc1CNC(=O)C(=O)NCCC1CCCCN1S(=O)(=O)c1ccc(C)cc1 (stereo not drawn) | inconclusive: 18.4 µM [inhibitor, single point] |  |
| COCCCN1C(=O)c2[nH]nc(-c3ccccc3O)c2C1c1ccc(OC)cc1 (stereo not drawn) | active: 29.1 µM |  |
| CC(C)c1ccc(NC(=O)c2cc(S(=O)(=O)NC3CCCCC3)ccc2F)cc1 | active: 18.4 µM |  |
| COc1ccc(OCC(O)Cn2ccnc2C)cc1 (stereo not drawn) | inactive |  |
| CC(=O)Nc1nonc1NC(=O)c1ccc(C(C)(C)C)cc1 | inconclusive: 29.1 µM [inhibitor, single point] |  |
| Cc1cc(C)cc(N2CCCn3c2nc2c3c(=O)[nH]c(=O)n2C)c1 |  | inconclusive: -33.8% [inhibitor] |

| SMILES | Potency | activity change, negative = growth inhibition |
| --- | --- | --- |
| CC(=O)Oc1ccc(C2=Cc3ccc(OC(C)=O)cc3OC2C)cc1 (stereo not drawn) | active: 11.6 µM |  |
| Cc1cnc(CN2CCc3c([nH]c4ccccc34)C2C2CCCCC2)[nH]1 (stereo not drawn) | inconclusive: 29.1 µM [inhibitor, single point] |  |
| OC1(c2cccnc2)CCN(Cc2ccc3c(c2)CN(Cc2ccc(F)c(F)c2)CCO3)CC1 | active: 11.6 µM |  |
| C[C@H](NC(=O)c1[nH]cnc1C(=O)N[C@@H](C)CO)c1ccccc1 | inactive |  |
| O=C(C1CCC(CNS(=O)(=O)c2cccs2)CC1)N1CCN(c2ccc(Cl)cc2)CC1 (stereo not drawn) | active: 4.11 µM |  |
| CN(C)c1ccc(CNc2ncnc3sccc23)cc1 | active: 2.06 µM |  |
| CCOC(=O)CCCNC(=O)COC(=O)c1cccc(F)c1 |  | inconclusive: -30.7% [inhibitor] |
| O=C(NC1CCN(C(=O)Nc2ccccc2Cl)CC1)c1ccccc1 | inconclusive: 29.1 µM [inhibitor, single point] |  |
| O=C(NN/C(=N/S(=O)(=O)c1ccc(Cl)cc1)c1ccccc1)c1ccc(O)cc1 | inactive |  |
| O=C(NCCc1ccccc1)C1CCC(Cn2c(=O)c3ccccc3n(Cc3cccc(Cl)c3)c2=O)CC1 (stereo not drawn) | active: 14.6 µM |  |
| O=C1CC(N2CCN(S(=O)(=O)c3ccccc3F)CC2)C(=O)N1c1ccccc1Cl (stereo not drawn) | inactive |  |
| Cc1cc2ccccc2c(=O)n1CC(=O)Nc1ccc2c(c1)OCCO2 | inactive |  |
| COc1ccccc1-n1c(-c2ccccc2)c[nH]c1=S | active: 16.4 µM |  |
| Cc1ccc(NC(=O)NC(=O)CN2C(=O)NC3(CCCCCCC3)C2=O)c(C)c1 | inactive |  |
| Cc1ccsc1/C=C1\SC(N2CC(C)OC(C)C2)=NC1=O (stereo not drawn) | active: 14.6 µM |  |
| COc1ccc(NC(C)=O)cc1NC(=O)CSc1nnc(C2CCCCC2)n1N | inactive |  |
| COCCN(C(=O)C1=COCCO1)c1c(N)n(CC(C)C)c(=O)[nH]c1=O | inactive |  |
| Cc1ccc2[nH]c(CSc3nnc(C)s3)cc(=O)c2c1 | inactive |  |
| CN(C)CCCN(Cc1ccccc1)C(=S)Nc1ccc(SC(F)F)cc1 | active: 23.1 µM |  |
| O=C(CCc1ccc(O)c(O)c1)N/N=C/c1ccc2c(c1)OCO2 | inconclusive: 18.4 µM [inhibitor, single point] |  |
| COc1ccc(-c2nn(-c3ccccc3)cc2/C=C\C(=O)Nc2ccc(C(=O)O)cc2)cc1 | inconclusive: 29.1 µM [inhibitor, partial curve, poor fit] |  |
| CC(C)(C)c1ccc(OCCC(=O)Nc2cccc(S(=O)(=O)N3CCCC3)c2)cc1 | inconclusive: 29.1 µM [inhibitor, single point] |  |
| Cc1nc2sc(C(c3ccco3)N3CCN(c4ccc(F)cc4)CC3)c(O)n2n1 (stereo not drawn) |  | inconclusive: -30.7% [inhibitor] |
| O=S(=O)(NCc1ccccc1Br)c1ccccc1Br | inconclusive: 14.1 µM [inhibitor, single point] and inconclusive: 5.8 µM [inhibitor, partial curve] |  |
